In all, about 390,000 compounds went through this assay and about 17,000 (4.4%) were called active. Inconclusive means that the source gave no clear call. Such entries were picked first, then a sample of the others. Calls come from the whole dose curve; as a rule, active = well fitted inhibition curve with a large enough effect; inconclusive = small, poorly fitted or top-dose-only effect; inactive = no such curve, though single readings can be large or run the other way. Potencies beside an inconclusive call are fits to weak or partial responses and may not hold up.
What follows are compounds tested against Lysine-specific demethylase 4A (Homo sapiens) (UniProt O75164) (assay: qHTS Assay for Inhibitors of JMJD2A-Tudor Domain). Conditions: AlphaScreen JMJD2A-Tudor / H3K4me3 peptide binding; activity change, negative = inhibition: at 114 µM (top of the series).
Chain of UniProt O75164 (O75164 whole entry, looked up, the tested form may be a part): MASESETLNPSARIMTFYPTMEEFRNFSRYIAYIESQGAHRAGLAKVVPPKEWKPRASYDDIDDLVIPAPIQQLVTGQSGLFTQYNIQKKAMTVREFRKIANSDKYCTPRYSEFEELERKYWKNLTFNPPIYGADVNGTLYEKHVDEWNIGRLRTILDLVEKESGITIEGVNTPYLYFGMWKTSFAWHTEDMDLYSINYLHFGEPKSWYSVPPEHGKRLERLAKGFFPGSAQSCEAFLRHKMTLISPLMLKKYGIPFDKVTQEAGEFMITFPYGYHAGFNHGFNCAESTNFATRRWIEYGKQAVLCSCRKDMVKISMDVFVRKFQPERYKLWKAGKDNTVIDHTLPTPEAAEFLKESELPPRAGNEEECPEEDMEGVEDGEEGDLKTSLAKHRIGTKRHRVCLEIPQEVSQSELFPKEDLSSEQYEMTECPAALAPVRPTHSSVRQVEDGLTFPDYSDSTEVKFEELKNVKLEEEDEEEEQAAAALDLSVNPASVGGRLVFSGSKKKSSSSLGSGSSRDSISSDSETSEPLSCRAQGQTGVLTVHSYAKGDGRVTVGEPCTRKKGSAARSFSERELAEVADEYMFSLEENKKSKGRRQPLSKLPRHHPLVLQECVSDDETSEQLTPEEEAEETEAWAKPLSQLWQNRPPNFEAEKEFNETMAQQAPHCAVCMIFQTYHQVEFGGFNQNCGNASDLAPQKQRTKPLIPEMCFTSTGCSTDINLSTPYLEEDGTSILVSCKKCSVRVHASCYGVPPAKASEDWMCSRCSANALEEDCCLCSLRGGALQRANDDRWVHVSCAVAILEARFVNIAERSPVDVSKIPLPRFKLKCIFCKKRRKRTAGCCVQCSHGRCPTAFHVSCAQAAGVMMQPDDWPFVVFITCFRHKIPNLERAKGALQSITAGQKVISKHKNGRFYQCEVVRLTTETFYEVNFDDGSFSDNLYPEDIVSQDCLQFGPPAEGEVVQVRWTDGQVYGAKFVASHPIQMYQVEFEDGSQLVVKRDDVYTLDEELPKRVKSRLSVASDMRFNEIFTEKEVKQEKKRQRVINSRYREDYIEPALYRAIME
With `COc1ccc(C)cc1NC(=O)CNc1ccccc1CN(C)C1CCCCC1` the Potency was inconclusive: 35.5 µM [inhibitor, partial curve]. For `COc1ccc(N2CCN(C(c3cc(OC)ccc3OC)c3nnnn3Cc3ccco3)CC2)cc1` (stereo not drawn), the Potency was active: 50.1 µM. In the case of `CCCCN(C)CC(O)Cn1cc(/C=C/C(=O)c2ccc(OCC)cc2)c2ccccc21` (stereo not drawn), the Potency is reported as active: 50.1 µM. `COc1ccccc1CN(C)C(=O)c1ccccc1Sc1ccccc1C#N` was tested, and the Potency was “inactive”. With `O=[N+]([O-])c1ccccc1/C=C/C=N/n1c(-c2ccc(Cl)cc2)n[nH]c1=S` the Potency was inconclusive: 79.4 µM [inhibitor, single point]. `CCOc1cc(C(=S)N2CCOCC2)ccc1OS(=O)(=O)c1ccc(C)cc1` was tested, and the Potency was “inactive”. `CCOc1ccc(-n2c(SCC(=O)N3CCCc4ccccc43)nc3c([nH]c4ccccc43)c2=O)cc1` was tested, and the Potency was inconclusive: 89.1 µM [inhibitor, single point]. For `O=C(N/N=C/c1c[nH]c2ccccc12)c1cc(Cl)ccc1O`, the Potency was “inactive”. With `O=C(O)c1ccccc1Nc1ccc([N+](=O)[O-])cc1C(=O)O` the Potency was active: 31.6 µM. `CC1=NNC(=O)/C1=C\c1cn(-c2ccccc2)nc1-c1cccs1` was tested, and the Potency was inconclusive: 25.1 µM [inhibitor, full curve]. In the case of `Cc1ccc(C)c(S(=O)(=O)Nc2ccccc2C(=O)Nc2ccccc2N2CCOCC2)c1`, the Potency is reported as inconclusive: 79.4 µM [inhibitor, single point]. In the case of `O=C(O)CC1S/C(=N/N=C/c2ccc([N+](=O)[O-])cc2)N(c2ccc(O)cc2)C1=O` (stereo not drawn), the Potency is reported as inconclusive: 56.2 µM [inhibitor, partial curve, poor fit]. For `N#Cc1c(/N=C/C=C/c2ccccc2)sc2c1CCCC2`, the Potency was active: 44.7 µM. In the case of `CCc1nccn1CCC(=O)N1CCc2c([nH]c3ccccc23)C1CC(C)C` (stereo not drawn), the Potency is reported as inconclusive: 44.7 µM [inhibitor, partial curve]. In the case of `COc1ccccc1NC(=O)N1CCOc2ccccc21`, the Potency is reported as “inactive”. For `CCc1ccc(CN2CCCC(C(=O)N3CCCCC3)C2)cc1` (stereo not drawn), the Potency was active: 44.7 µM. In the case of `COc1cccc(NC(=O)CN2C(=O)NC(c3ccccc3)(c3ccccc3)C2=O)c1`, the Potency is reported as inconclusive: 89.1 µM [inhibitor, partial curve]. In the case of `COc1ccccc1-c1nc(C#N)c(N2CCCCCC2)o1`, the Potency is reported as inconclusive: 50.1 µM [inhibitor, partial curve]. For `CCn1cnc2cc(NCc3ccccc3Cl)ccc21`, the Potency was inconclusive: 56.2 µM [inhibitor, partial curve]. `Cc1ccc(N2CCN(C(=O)Nc3cn(CC(C)C)c(=O)c4ccccc34)CC2)c(C)c1` was tested, and the Potency was inconclusive: 39.8 µM [inhibitor, full curve, poor fit]. For `O=C(OCc1ccc([N+](=O)[O-])cc1)c1cc([N+](=O)[O-])ccc1N1CCOCC1`, the activity change, negative = inhibition was inconclusive: -41.4% [inhibitor]. In the case of `CCSc1nnc(CNC(=O)C23CC4CC(CC(C4)C2)C3)n1Cc1ccccc1`, the Potency is reported as inconclusive: 70.8 µM [inhibitor, single point]. In the case of `CC(C)CCn1c(=O)c2sccc2n2c(CCCC(=O)Nc3ccc(F)c(Cl)c3)nnc12`, the Potency is reported as inconclusive: 89.1 µM [inhibitor, partial curve]. For `COc1ccc(OC)c(C2=Nn3c(nnc3-c3ccccc3C)SC2)c1`, the Potency was inconclusive: 50.1 µM [inhibitor, partial curve]. With `COc1ccnc(CSC(N)=Nc2ccccc2OC)c1` the Potency was active: 44.7 µM. With `O=[N+]([O-])c1cc(S(=O)(=O)Oc2ccccc2)ccc1Cl` the Potency was inconclusive: 39.8 µM [inhibitor, partial curve]. With `COc1ccc(N2CCN(C(=O)C(=O)c3c(C)n(C)c4ccccc34)CC2)cc1` the Potency was inconclusive: 89.1 µM [inhibitor, single point]. With `CCC(C)(C)NC(=O)CN(C(=O)c1csnn1)c1cccc2c1CCCC2` the Potency was “inactive”. `O=S(=O)(O)c1cc(O)c(N=Nc2ccc(O)cc2O)c2ccccc12` was tested, and the Potency was active: 3.55 µM. For `O=C(NN=C1c2ccccc2-c2ccccc21)c1ccccn1`, the Potency was inconclusive: 50.1 µM [inhibitor, partial curve]. For `NC[C@H](O)c1ccc(O)c(O)c1`, the Potency was active: 7.94 µM. With `Cc1ccc(-c2csc(NC(=O)C[n+]3cc(-c4ccccc4)n4c3CCC4)n2)cc1` the Potency was inconclusive: 89.1 µM [inhibitor, single point]. With `COc1ccccc1NS(=O)(=O)c1cc(N)ccc1N1CCCC1` the Potency was inconclusive: 56.2 µM [inhibitor, partial curve, poor fit]. For `CCN(CCCNC(=O)c1cc2c(=O)[nH]c3ccc(C)cc3c2s1)Cc1ccccc1`, the Potency was inconclusive: 63.1 µM [inhibitor, partial curve, poor fit]. With `Cc1ccc(CSCC(=O)N/N=C/c2ccc(OCC(=O)Nc3ccc(C)cc3)cc2)cc1` the Potency was inconclusive: 56.2 µM [inhibitor, partial curve]. With `Cc1c(C(=O)NC2CCN(Cc3ccccc3)C2)oc2c(Cl)cccc12` (stereo not drawn) the Potency was inconclusive: 39.8 µM [inhibitor, partial curve]. With `Cc1cccc(N2N=C(C(=O)Nc3ccc(Cl)c(S(=O)(=O)N4CCOCC4)c3)CCC2=O)c1` the Potency was “inactive”. With `NS(=O)(=O)c1cc(C(=O)OCC(=O)Nc2ccc(N3CCCCC3)cc2)ccc1Cl` the Potency was inconclusive: 31.6 µM [inhibitor, full curve, poor fit]. In the case of `O=C(Cc1cccs1)N1CCC(c2nc3c(nnn3Cc3ccccc3)c(=O)[nH]2)CC1`, the Potency is reported as “inactive”. For `CCc1ccc2oc(C(=O)Nc3nc(-c4ccccc4)ns3)c(C)c2c1`, the Potency was “inactive”. In the case of `CCN(CC)S(=O)(=O)c1cnccc1N1CCN(c2cccc(Cl)c2)CC1`, the Potency is reported as inconclusive: 44.7 µM [inhibitor, single point]. With `CCN1CCN(c2cc(N3CCN(C(=O)c4ccco4)CC3)c3c4c(onc24)-c2ccccc2C3=O)CC1` the Potency was active: 28.2 µM. With `CCOC(=O)CCCCC(=O)c1[nH]c(=O)[nH]c1CSc1nc(C)cc(=O)[nH]1` the Potency was inconclusive: 56.2 µM [inhibitor, partial curve]. With `O=C1c2ccccc2CC1Sc1nnc(-c2ccncc2)o1` (stereo not drawn) the Potency was inconclusive: 100 µM [inhibitor, single point]. In the case of `CCCCCNC(=O)c1ccc2c(=O)n(CC3CCCO3)c(=S)[nH]c2c1` (stereo not drawn), the Potency is reported as inconclusive: 89.1 µM [inhibitor, single point]. `COc1ccc(CN2CCN(Cc3cccc(Oc4ccccc4)c3)CC2)c(OC)c1OC` was tested, and the Potency was active: 3.98 µM. In the case of `COc1ccc(-c2nc(SC(C)C(=O)Nc3ccc(NC(C)=O)cc3)n[nH]2)cc1` (stereo not drawn), the Potency is reported as inconclusive: 39.8 µM [inhibitor, single point]. With `CC(=O)Nc1ccc(S(=O)(=O)NNC(=O)c2cccc([N+](=O)[O-])c2)cc1` the Potency was “inactive”. `Cc1ccc(S(=O)(=O)N2CCN(CC(=O)N/N=C/c3ccc(C)o3)CC2)cc1` was tested, and the Potency was “inactive”. For `O=C(NCCCN1CCOCC1)c1ccc2c(c1)N(Cc1ccccc1)CCS2`, the Potency was inconclusive: 79.4 µM [inhibitor, partial curve]. `CCCC(C(=O)O)N1C(=O)/C(=C/c2cccn2C)SC1=S` (stereo not drawn) was tested, and the Potency was inconclusive: 50.1 µM [inhibitor, partial curve]. In the case of `Cc1cc(/C=N/N2CCN(C)CC2)c(C)n1-c1ccccc1F`, the Potency is reported as inconclusive: 20 µM [inhibitor, full curve]. `CCCN(CC1CCCO1)C(=O)CCc1nnc(CCc2ccc(OC)cc2)o1` (stereo not drawn) was tested, and the Potency was inconclusive: 31.6 µM [inhibitor, partial curve]. In the case of `CN(Cc1ccc(F)cc1)C(=O)c1ccc(NS(=O)(=O)c2ccccc2)cc1`, the Potency is reported as “inactive”. In the case of `COc1ccc(/C=C2\SC(=N)N(c3nccs3)C2=O)cc1OC`, the Potency is reported as inconclusive: 100 µM [inhibitor, single point]. In the case of `Cc1ccc(S(=O)(=O)NCCCCCC(=O)Nc2nccs2)cc1`, the Potency is reported as inconclusive: 79.4 µM [inhibitor, partial curve]. In the case of `CC(C)C1NC2(C(=O)c3ccccc3C2=O)C2C(=O)N(c3ccc(F)cc3)C(=O)C12` (stereo not drawn), the Potency is reported as inconclusive: 50.1 µM [inhibitor, partial curve]. For `O=S(=O)(Cc1ccc(Cl)cc1)NCc1cccnc1`, the Potency was “inactive”. For `COc1ccc(CCNC(=O)C(=O)Nc2nccs2)cc1OC`, the Potency was active: 79.4 µM. With `CCCc1nnc(NC(=O)CS(=O)(=O)c2ccccc2)s1` the Potency was inconclusive: 35.5 µM [inhibitor, single point]. In the case of `CCOc1ccc2c(c1)C(N(CCN1CCOCC1)C(=S)Nc1ccccc1OC)CC(C)(C)O2` (stereo not drawn), the Potency is reported as inconclusive: 56.2 µM [inhibitor, partial curve, poor fit]. In the case of `Cc1noc(C)c1S(=O)(=O)NCCc1csc2nc(-c3ccc(F)cc3)nn12`, the Potency is reported as inconclusive: 39.8 µM [inhibitor, single point]. In the case of `COc1ccccc1NC1=C(Cl)C(=O)N(C2CCCCC2)C1=O`, the Potency is reported as inconclusive: 50.1 µM [inhibitor, partial curve]. In the case of `N#CC1=C2N=C(N)c3ccccc3N2C2=C(C(=O)CCC2)C1c1ccc(F)cc1` (stereo not drawn), the Potency is reported as inconclusive: 56.2 µM [inhibitor, partial curve]. With `CCSC1=NC2(CCN(C(=O)NC3CCCCC3)CC2)N=C1c1ccc(C)c(C)c1` the Potency was “inactive”. `CC(=O)Oc1ccc(C(=O)Nc2cccc(C(=O)c3cccc(NC(=O)c4ccc(OC(C)=O)cc4)c3)c2)cc1` was tested, and the Potency was inconclusive: 28.2 µM [inhibitor, partial curve]. With `Cc1ccc(S(=O)(=O)N2CCN(C(=O)CCC(=O)Nc3ccc(Br)c(C)c3)CC2)cc1` the Potency was “inactive”. With `CN(C)S(=O)(=O)Oc1cccc(C(=O)Nc2ccc(Cl)cc2)c1` the Potency was “inactive”.
% is set by controls: 0 for no effect and ±100 for the full control effect; potency is the fitted concentration of half-maximal effect; tags give direction and shape of the fitted curve.
Note: nearly all actives have a fitted effect of over 50% in size.
